Results on 31 molecules are retold here after paper PMC9911399, “Two distinct binding modes provide the RNA-binding protein RbFox with extraordinary sequence specificity”.

The chains are these.
B1: CCGGUGC (DNA:RNA)
RNA: GGGAGACCGGAAUUCAGAUUGUCCCCGGUGCUUAAAUCCCGUCGUAGCCACCA
DNA 1: CAATCTGAATTCCGGTCTCCC
DNA 2: TGGTGGCTACGACGGGATT
B2: ACGAGAU (DNA:RNA)
RNA: B1 RNA with C25A, G28A, U29G, G30A, C31U
DNA 1: CAATCTGAATTCCGGTCTCCC
DNA 2: TGGTGGCTACGACGGGATT
B3: ACCACUC (DNA:RNA)
RNA: B1 RNA with C25A, G27C, G28A, U29C, G30U
DNA 1: CAATCTGAATTCCGGTCTCCC
DNA 2: TGGTGGCTACGACGGGATT
B4: GACUGGG (DNA:RNA)
RNA: B1 RNA with C25G, C26A, G27C, G28U, U29G, C31G
DNA 1: CAATCTGAATTCCGGTCTCCC
DNA 2: TGGTGGCTACGACGGGATT
B5: ACAGACG (DNA:RNA)
RNA: B1 RNA with C25A, G27A, U29A, G30C, C31G
DNA 1: CAATCTGAATTCCGGTCTCCC
DNA 2: TGGTGGCTACGACGGGATT
B6: UCGCUUC (DNA:RNA)
RNA: B1 RNA with C25U, G28C, G30U
DNA 1: CAATCTGAATTCCGGTCTCCC
DNA 2: TGGTGGCTACGACGGGATT
B7: ACCGUGG (DNA:RNA)
RNA: B1 RNA with C25A, G27C, C31G
DNA 1: CAATCTGAATTCCGGTCTCCC
DNA 2: TGGTGGCTACGACGGGATT
B8: UGAUCAC (DNA:RNA)
RNA: B1 RNA with C25U, C26G, G27A, G28U, U29C, G30A
DNA 1: CAATCTGAATTCCGGTCTCCC
DNA 2: TGGTGGCTACGACGGGATT
B9: AAUAGCA (DNA:RNA)
RNA: GGGAGACCGGAAUUCAGAUUGUCCAAUAGCAUUAAAUCCCGUCGUAGCCACCA
DNA 1: CAATCTGAATTCCGGTCTCCC
DNA 2: TGGTGGCTACGACGGGATT
B10: UUGUUAC (DNA:RNA)
RNA: B1 RNA with C25U, C26U, G28U, G30A
DNA 1: CAATCTGAATTCCGGTCTCCC
DNA 2: TGGTGGCTACGACGGGATT
B11: UUCCCAU (DNA:RNA)
RNA: GGGAGACCGGAAUUCAGAUUGUCCUUCCCAUUUAAAUCCCGUCGUAGCCACCA
DNA 1: CAATCTGAATTCCGGTCTCCC
DNA 2: TGGTGGCTACGACGGGATT
B12: AAUGAGG (DNA:RNA)
RNA: B9 RNA with A28G, G29A, C30G, A31G
DNA 1: CAATCTGAATTCCGGTCTCCC
DNA 2: TGGTGGCTACGACGGGATT
B13: GGGCUUG (DNA:RNA)
RNA: B1 RNA with C25G, C26G, G28C, G30U, C31G
DNA 1: CAATCTGAATTCCGGTCTCCC
DNA 2: TGGTGGCTACGACGGGATT
B14: AGAAUUA (DNA:RNA)
RNA: B9 RNA with A26G, U27A, G29U, C30U
DNA 1: CAATCTGAATTCCGGTCTCCC
DNA 2: TGGTGGCTACGACGGGATT
B15: AGCCACC (DNA:RNA)
RNA: B9 RNA with A26G, U27C, A28C, G29A, A31C
DNA 1: CAATCTGAATTCCGGTCTCCC
DNA 2: TGGTGGCTACGACGGGATT
B16: CCGGCGA (DNA:RNA)
RNA: B1 RNA with U29C, C31A
DNA 1: CAATCTGAATTCCGGTCTCCC
DNA 2: TGGTGGCTACGACGGGATT
B17: GAUUAGA (DNA:RNA)
RNA: B9 RNA with A25G, A28U, G29A, C30G
DNA 1: CAATCTGAATTCCGGTCTCCC
DNA 2: TGGTGGCTACGACGGGATT
B18: CGCCGCG (DNA:RNA)
RNA: B9 RNA with A25C, A26G, U27C, A28C, A31G
DNA 1: CAATCTGAATTCCGGTCTCCC
DNA 2: TGGTGGCTACGACGGGATT
B19: CUGAUCG (DNA:RNA)
RNA: B1 RNA with C26U, G28A, G30C, C31G
DNA 1: CAATCTGAATTCCGGTCTCCC
DNA 2: TGGTGGCTACGACGGGATT
B20: GCUGCCC (DNA:RNA)
RNA: B1 RNA with C25G, G27U, U29C, G30C
DNA 1: CAATCTGAATTCCGGTCTCCC
DNA 2: TGGTGGCTACGACGGGATT
B21: UUAACCA (DNA:RNA)
RNA: B9 RNA with A25U, A26U, U27A, G29C
DNA 1: CAATCTGAATTCCGGTCTCCC
DNA 2: TGGTGGCTACGACGGGATT
B22: AUAACGA (DNA:RNA)
RNA: B9 RNA with A26U, U27A, G29C, C30G
DNA 1: CAATCTGAATTCCGGTCTCCC
DNA 2: TGGTGGCTACGACGGGATT
B23: ACGAUCU (DNA:RNA)
RNA: B9 RNA with A26C, U27G, G29U, A31U
DNA 1: CAATCTGAATTCCGGTCTCCC
DNA 2: TGGTGGCTACGACGGGATT
B24: GGGGGGC (DNA:RNA)
RNA: B1 RNA with C25G, C26G, U29G
DNA 1: CAATCTGAATTCCGGTCTCCC
DNA 2: TGGTGGCTACGACGGGATT
B25: GAGCCAA (DNA:RNA)
RNA: B11 RNA with U25G, U26A, C27G, U31A
DNA 1: CAATCTGAATTCCGGTCTCCC
DNA 2: TGGTGGCTACGACGGGATT
B26: AUGUCAU (DNA:RNA)
RNA: B11 RNA with U25A, C27G, C28U
DNA 1: CAATCTGAATTCCGGTCTCCC
DNA 2: TGGTGGCTACGACGGGATT
B27: CUAAGGA (DNA:RNA)
RNA: B9 RNA with A25C, A26U, U27A, C30G
DNA 1: CAATCTGAATTCCGGTCTCCC
DNA 2: TGGTGGCTACGACGGGATT
B28: CUACAUG (DNA:RNA)
RNA: B11 RNA with U25C, C27A, C29A, A30U, U31G
DNA 1: CAATCTGAATTCCGGTCTCCC
DNA 2: TGGTGGCTACGACGGGATT
B29: AAGAGGC (DNA:RNA)
RNA: B9 RNA with U27G, C30G, A31C
DNA 1: CAATCTGAATTCCGGTCTCCC
DNA 2: TGGTGGCTACGACGGGATT
B30: CUUAGCU (DNA:RNA)
RNA: B9 RNA with A25C, A26U, A31U
DNA 1: CAATCTGAATTCCGGTCTCCC
DNA 2: TGGTGGCTACGACGGGATT
B31: AGCGCUA (DNA:RNA)
RNA: B9 RNA with A26G, U27C, A28G, G29C, C30U
DNA 1: CAATCTGAATTCCGGTCTCCC
DNA 2: TGGTGGCTACGACGGGATT

Changes are numbered by the printed parent chain; changes in the protein carry UniProt numbers. The list shows a part of the results.

The experiment concerns the target T1, RBFOX1 RRM RbFoxmut (Fox-RRM*) (Homo sapiens, UniProt Q9NWB1 109-208, R118D;E147R;N151S;E152T).
T1 sequence: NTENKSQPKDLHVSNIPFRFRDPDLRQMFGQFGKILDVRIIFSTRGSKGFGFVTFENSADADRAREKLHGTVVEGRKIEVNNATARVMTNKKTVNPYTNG
The experiment can be described thus: EMSA; HiTS-Eq, 1 nM pool, 10 min; buffer printed only for the single-RNA assays: 10 mM Tris pH 7.5, 150 mM NaCl, 3.4 mM EDTA, 0.001% NP-40, 30 C. The settings on record: tags: His6 N-terminal (pET28a); label: 5' 32P. The essentials: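 Purified wild-type or mutant RbFox RRM at increasing concentrations was equilibrated with 1 nM of 5′-radiolabelled RNA carrying 7 randomized nucleotides for 10 min in 50 µL. Unbound RNA was separated by 8% native PAGE and sequenced. Relative association constants came from read-count changes of each RNA species compared with the control reaction, normalised to the cognate motif.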
On the technique in general: A gel shift assay detects complexes by their altered migration in electrophoresis.
Take B1: the binding signal was 0.102 KA relative to UGCAUGU. For B2, the binding signal was 0.101 KA relative to UGCAUGU.

With B3, the binding signal is 0.0459 KA relative to UGCAUGU. B4: the binding signal was 0.133 KA relative to UGCAUGU. The result for B5 reads 0.0878 KA relative to UGCAUGU. For B6 the value was 0.0952 KA relative to UGCAUGU; for B7, 0.0877 KA relative to UGCAUGU. The result for B8 reads 0.0691 KA relative to UGCAUGU. In the case of B9, the binding signal is 0.0898 KA relative to UGCAUGU. For B10 the value was 0.126 KA relative to UGCAUGU; for B11, 0.0783 KA relative to UGCAUGU.

In the case of B12, the binding signal was 0.0922 KA relative to UGCAUGU. On to B13, for which the binding signal was 0.371 KA relative to UGCAUGU.

On to B14, for which the binding signal is 0.131 KA relative to UGCAUGU. For B15 the value was 0.0668 KA relative to UGCAUGU; for B16, 0.0907 KA relative to UGCAUGU. Take B17: the binding signal is 0.0757 KA relative to UGCAUGU.

For the molecule B18, the binding signal was 0.115 KA relative to UGCAUGU.

On to B19, for which the binding signal is 0.145 KA relative to UGCAUGU. For B20 the value was 0.0603 KA relative to UGCAUGU; for B21, 0.102 KA relative to UGCAUGU; for B22, 0.074 KA relative to UGCAUGU. The result for B23 reads 0.0674 KA relative to UGCAUGU. For B24, the binding signal is 0.0893 KA relative to UGCAUGU. On to B25, for which the binding signal was 0.0785 KA relative to UGCAUGU.

In the case of B26, the binding signal was 0.126 KA relative to UGCAUGU. For B27, the binding signal is 0.066 KA relative to UGCAUGU.

Turning to B28, the binding signal was 0.0835 KA relative to UGCAUGU. Take B29: the binding signal is 0.0977 KA relative to UGCAUGU. For the molecule B30, the binding signal was 0.103 KA relative to UGCAUGU. For B31 the value was 0.111 KA relative to UGCAUGU.
